The other results are listed elsewhere or left out. The list includes weakly bound sequences.
biological target: T1, MBP-FoxP3dN (UniProt Q99JB6); assay: PD-seq (MBP pull-down with sequencing); conditions: 20 mM Tris-HCl pH 7.5, 100 mM NaCl, 1.5 mM MgCl2, 0.4 uM protein, 0.1 uM dsDNA library, 30 min, room temperature, amylose pull-down; high values mean tight binding; double strand, one strand shown
T1 sequence: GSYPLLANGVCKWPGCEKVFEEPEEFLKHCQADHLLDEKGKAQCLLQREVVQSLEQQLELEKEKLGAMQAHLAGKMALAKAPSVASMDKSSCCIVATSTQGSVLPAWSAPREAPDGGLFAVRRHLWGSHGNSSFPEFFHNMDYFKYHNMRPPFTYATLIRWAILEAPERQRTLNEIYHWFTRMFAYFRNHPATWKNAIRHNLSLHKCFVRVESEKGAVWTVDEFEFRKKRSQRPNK

Row | Sequence | binding signal (RPM ratio (pull-down/input))
1 | GATGATTGTTCTCCCAGCTGATGAATTTCGTCAGTCGAGTAAACAAATTTTCCTAATCTTTCTGTTCAAGCGCCATCTAC | 0.401
2 | GATGATTGTTCTCCCAGCTGATGAATTTAAGGTCTCGAGTAAACAAATTTTCCTAATCTTTCTGTTCAAGCGCCATCTAC | 0.529
3 | GATGATTGTTCTCCCAGCTGATGAATTATATTCTTCGAGTAAACAAATTTTCCTAATCTTTCTGTTCAAGCGCCATCTAC | 0.495
4 | GATGATTGTTCTCCCAGCTGATGAATTAAAGCCATCGAGTAAACAAATTTTCCTAATCTTTCTGTTCAAGCGCCATCTAC | 1.45
5 | GATGATTGTTCTCCCAGCTGATGAATTGCACTCGTCGAGTAAACAAATTTTCCTAATCTTTCTGTTCAAGCGCCATCTAC | 1.01
6 | GATGATTGTTCTCCCAGCTGATGAATTGAGGTGTTCGAGTAAACAAATTTTCCTAATCTTTCTGTTCAAGCGCCATCTAC | 0.749
7 | GATGATTGTTCTCCCAGCTGATGAATTTGTTCCTTCGAGTAAACAAATTTTCCTAATCTTTCTGTTCAAGCGCCATCTAC | 2.94
8 | GATGATTGTTCTCCCAGCTGATGAATTCGACGCGTCGAGTAAACAAATTTTCCTAATCTTTCTGTTCAAGCGCCATCTAC | 0.663
9 | GATGATTGTTCTCCCAGCTGATGAATTATGAATGTCGAGTAAACAAATTTTCCTAATCTTTCTGTTCAAGCGCCATCTAC | 1.04
10 | GATGATTGTTCTCCCAGCTGATGAATTGGTTAACTCGAGTAAACAAATTTTCCTAATCTTTCTGTTCAAGCGCCATCTAC | 0.469
11 | GATGATTGTTCTCCCAGCTGATGAATTTGGCGGTTCGAGTAAACAAATTTTCCTAATCTTTCTGTTCAAGCGCCATCTAC | 0.63
12 | GATGATTGTTCTCCCAGCTGATGAATTCAGCTAATCGAGTAAACAAATTTTCCTAATCTTTCTGTTCAAGCGCCATCTAC | 0.289
13 | GATGATTGTTCTCCCAGCTGATGAATTACGACATTCGAGTAAACAAATTTTCCTAATCTTTCTGTTCAAGCGCCATCTAC | 1.37
14 | GATGATTGTTCTCCCAGCTGATGAATTTTATTAGTCGAGTAAACAAATTTTCCTAATCTTTCTGTTCAAGCGCCATCTAC | 4.27
15 | GATGATTGTTCTCCCAGCTGATGAATTGTGTCTATCGAGTAAACAAATTTTCCTAATCTTTCTGTTCAAGCGCCATCTAC | 3.06
16 | GATGATTGTTCTCCCAGCTGATGAATTAGTTGTGTCGAGTAAACAAATTTTCCTAATCTTTCTGTTCAAGCGCCATCTAC | 6.21

Row | Sequence | binding signal (RPM ratio (pull-down/input))
17 | GATGATTGTTCTCCCAGCTGATGAATTGCCTTACTCGAGTAAACAAATTTTCCTAATCTTTCTGTTCAAGCGCCATCTAC | 0.701
18 | GATGATTGTTCTCCCAGCTGATGAATTTAACACTTCGAGTAAACAAATTTTCCTAATCTTTCTGTTCAAGCGCCATCTAC | 0.781
19 | GATGATTGTTCTCCCAGCTGATGAATTTACTTTTTCGAGTAAACAAATTTTCCTAATCTTTCTGTTCAAGCGCCATCTAC | 1.02
20 | GATGATTGTTCTCCCAGCTGATGAATTCGGTGGATCGAGTAAACAAATTTTCCTAATCTTTCTGTTCAAGCGCCATCTAC | 0.506
21 | GATGATTGTTCTCCCAGCTGATGAATTTACTCTATCGAGTAAACAAATTTTCCTAATCTTTCTGTTCAAGCGCCATCTAC | 0.459
22 | GATGATTGTTCTCCCAGCTGATGAATTTCCCTGTTCGAGTAAACAAATTTTCCTAATCTTTCTGTTCAAGCGCCATCTAC | 0.235
23 | GATGATTGTTCTCCCAGCTGATGAATTACTGCTATCGAGTAAACAAATTTTCCTAATCTTTCTGTTCAAGCGCCATCTAC | 0.645
24 | GATGATTGTTCTCCCAGCTGATGAATTACTAAACTCGAGTAAACAAATTTTCCTAATCTTTCTGTTCAAGCGCCATCTAC | 0.403
25 | GATGATTGTTCTCCCAGCTGATGAATTGCTCCAGTCGAGTAAACAAATTTTCCTAATCTTTCTGTTCAAGCGCCATCTAC | 0.32
26 | GATGATTGTTCTCCCAGCTGATGAATTATACGGGTCGAGTAAACAAATTTTCCTAATCTTTCTGTTCAAGCGCCATCTAC | 0.316
27 | GATGATTGTTCTCCCAGCTGATGAATTTTTTCATTCGAGTAAACAAATTTTCCTAATCTTTCTGTTCAAGCGCCATCTAC | 0.258
28 | GATGATTGTTCTCCCAGCTGATGAATTTTGACGTTCGAGTAAACAAATTTTCCTAATCTTTCTGTTCAAGCGCCATCTAC | 0.933
29 | GATGATTGTTCTCCCAGCTGATGAATTGGCCGTCTCGAGTAAACAAATTTTCCTAATCTTTCTGTTCAAGCGCCATCTAC | 0.336
30 | GATGATTGTTCTCCCAGCTGATGAATTATCTTCATCGAGTAAACAAATTTTCCTAATCTTTCTGTTCAAGCGCCATCTAC | 0.359
31 | GATGATTGTTCTCCCAGCTGATGAATTCAGCTGATCGAGTAAACAAATTTTCCTAATCTTTCTGTTCAAGCGCCATCTAC | 0.532
32 | GATGATTGTTCTCCCAGCTGATGAATTGCGTGGATCGAGTAAACAAATTTTCCTAATCTTTCTGTTCAAGCGCCATCTAC | 1.08

Reference: article PMC12820563
